Assay results as given in PubChem BioAssay AID504832 (National Center for Advancing Translational Sciences (NCATS), 2011).
Screen size: about 310,000 compounds; about 18,000 (5.8%) were called active. The shares of active, inactive and inconclusive entries below differ from those in the screen. Calls come from the whole dose curve; as a rule, active = well fitted inhibition curve with a large enough effect; inconclusive = small, poorly fitted or top-dose-only effect, or another doubt; inactive = no such curve, though single readings can be large or run the other way. No potency is given beside an inconclusive call; the fits are too rough.

Experiment: Primary qHTS for delayed death inhibitors of the malarial parasite plastid, 48 hour incubation
Conditions: P. falciparum luciferase growth in erythrocytes; series mostly up to 28.7 µM; activity change, negative = inhibition: at the top concentration
Procedure, shortened: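 Firefly luciferase activity from engineered P. falciparum reports growth; inhibitors lower the luminescent signal. Cultures contained 2% hematocrit erythrocytes at 0.1% final parasitemia.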
% is set by controls: 0 for no effect and ±100 for the full control effect; potency is the fitted concentration of half-maximal effect; tags give direction and shape of the fitted curve.

SMILES | Potency | activity change, negative = inhibition
COc1ccc(OC)c(S(=O)(=O)N2CCN(C(=O)c3cc(C4CC4)nn3-c3ccccc3)CC2)c1 | inconclusive [inhibitor, partial curve] | –
COCCn1nnnc1C(c1ccc(C(F)(F)F)cc1)N1CCOCC1 (stereo not drawn) | – | inactive: -12.3%
Cc1noc(C)c1CSCC(=O)N(C)CC(=O)Nc1ccccc1C(F)(F)F | – | inactive: -28%
CC(C)C(=O)Nc1c(-c2ccccc2)c(=O)c2ccccc2n1C | – | inactive: 45.1%
OCCCNc1ncnc2c1[nH]c1ccccc12 | – | inactive: 14.6%
N#Cc1c(NCCCO)nc(NCc2ccccc2)c2c1CCN(Cc1ccccc1)C2 | inconclusive [inhibitor, partial curve] | –
O=C(Nc1ccc(-c2nc3ccccc3[nH]2)cc1)c1c(F)c(F)c(F)c(F)c1F | – | inactive: 15.2%
CC1CCN(c2nc(/C=C/c3ccccc3)nc3ccccc23)CC1 | inconclusive [inhibitor, single point] | –
Cc1ccc(O)c(-c2cc(C(F)(F)F)[nH]n2)c1 | inconclusive [inhibitor, full curve] | –
CCC(C(=O)NC1CCCC1)N(C(=O)Cn1nnc(-c2ccc(C)o2)n1)c1cccc(OC)c1 (stereo not drawn) | inconclusive [inhibitor, single point] | –
O=C(c1ccccn1)C1CCCN(Cc2cn[nH]c2-c2cc3ccccc3o2)C1 (stereo not drawn) | inconclusive [inhibitor, partial curve, poor fit] | –
CCOc1ccc(S(=O)(=O)N2CCN(C(=O)Cc3n[nH]c(=O)c4ccccc34)CC2)cc1 | inconclusive [inhibitor, partial curve, poor fit] | –
O=C(CNc1ccccc1)NN=C1CCCC1 | – | inactive: -5.54%
COC(=O)c1[nH]c2cccc(C)c2c1NC(=O)CN1CCN(c2ccccc2OC)CC1 | inconclusive [inhibitor, single point] | –
c1ccc2c(c1)sc1ccccc12 | – | inactive: 9.27%
COCCn1c(-c2ccc(Cl)cc2)cnc1SCC(=O)NCCc1ccc(OC)c(OC)c1 | inconclusive [inhibitor, partial curve, poor fit] | –
CCCCn1c(N)c(N(CC)C(=O)c2ccccc2C(F)(F)F)c(=O)[nH]c1=O | – | inactive: -1.06%
COC(=O)c1ccc2c(=O)[nH]c(CSc3nc(C)cs3)nc2c1 | – | inactive: 75.4%
N#C/C(=C\c1ccc(N2CCOCC2)o1)C(=O)Nc1ccc(O)cc1 | inconclusive [inhibitor, partial curve, poor fit] | –
Oc1c(N=NC(=S)Nc2ccccc2F)c2ccccc2n1Cc1ccccc1F | inconclusive [inhibitor, full curve] | –
CCc1ccc(NC(=O)[C@H](Cc2ccccc2)NC(=O)C2CCN(C(=O)[C@@H](N)CC(C)C)CC2)cc1 | inconclusive [inhibitor, partial curve, poor fit] | –
Cc1ccc(N)c2c1OCCC2=O | inconclusive [inhibitor, partial curve, poor fit] | –

SMILES | Potency | activity change, negative = inhibition
C=CCNC(=S)N/N=C/c1ccc(C(C)(C)C)cc1 | inconclusive [inhibitor, full curve, poor fit] | –
O=C(NCc1ccccc1)N1CCC(CO)(CCc2ccccc2)CC1 | – | inactive: -0.34%
COc1ccc(-c2nn(-c3ccccc3)cc2C(=O)N2c3ccc(C)cc3C3CN(C)CCC32)cc1 (stereo not drawn) | inconclusive [inhibitor, single point] | –
CCn1ccnc1CNCc1ccc(OCC(O)CN(C)Cc2ccccc2)cc1 (stereo not drawn) | inconclusive [inhibitor, partial curve] | –
Cn1c(CCN2CCN(c3ccccn3)CC2)nc2cc(NC(=O)COc3ccc(Cl)cc3)ccc21 | inconclusive [inhibitor, single point] | –
O=C(COc1ccc(-c2nnco2)cc1)NCc1ccccc1Cl | – | inactive: -3.92%
CCOc1ccccc1N(CC(=O)Nc1ccc(OC)cc1OC)S(=O)(=O)c1ccccc1 | inconclusive [inhibitor, full curve, poor fit] | –
Cc1cc(C)cc(N(CCC#N)C(=O)COC(=O)CCc2c[nH]c3ccccc23)c1 | inconclusive [inhibitor, single point] | –
Cc1cccc(NC(=S)NC2CC3CCC(C2)N3Cc2ccco2)c1 (stereo not drawn) | inconclusive [inhibitor, partial curve, poor fit] | –
Cc1ccc(C(=O)Nc2ccccc2C(=O)NC(Cc2c[nH]c3ccccc23)C(=O)O)cc1 (stereo not drawn) | inconclusive [inhibitor, single point] | –
O=C(CCCn1ncn2c(cc3occc32)c1=O)NCc1cccc(Cl)c1 | inconclusive [inhibitor, partial curve, poor fit] | –
COc1ccc(S(=O)(=O)N2CCN(CC(=O)Nc3sccc3C(N)=O)CC2)cc1OC | inconclusive [inhibitor, single point] | –
S=C(Nc1ccc(N2CCOCC2)cc1)Nc1ccc2nc(-c3ccco3)c(-c3ccco3)nc2c1 | inconclusive [inhibitor, single point] | –
Cc1ccc(-c2csc(NC(=O)CN3CCOCC3)n2)cc1 | – | inactive: -6.43%
NC(N)=Nc1nc2ccc([N+](=O)[O-])cc2[nH]1 | active: 8.28 µM | –
COc1cc(C2CC(=O)N(CC(=O)NCC3CCCO3)c3ccccc3S2)cc(OC)c1OC (stereo not drawn) | inconclusive [inhibitor, partial curve] | –
CCOC(=O)c1cnc2ccccc2c1Nc1ccc2c(c1)OCCO2 | active: 4.15 µM | –
CN(C)C(=S)Nc1ccc2c(c1)OCCO2 | inconclusive [inhibitor, full curve, poor fit] | –
C=CCn1c(=N)c(S(=O)(=O)c2ccc(C)c(C)c2)cc2c(=O)n3ccccc3nc21 | – | inactive: -19.7%
O=C(NCCc1ccccc1F)C1CCCN1S(=O)(=O)c1ccc2ccccc2c1 (stereo not drawn) | inconclusive [inhibitor, single point] | –
O=C(O)c1cc(S(=O)(=O)O)cc(Nc2c3ccccc3nc3ccccc23)c1O | inconclusive [inhibitor, full curve, poor fit] | –
